According to the BET-seq Pho4 binding data (Le et al. 2018):
The list shows a part of the results. These are noisy estimates, calculated here from bound and input reads.

biological target: T1, Pho4 (S. cerevisiae) (UniProt P07270); experiment: relative binding free energy (BET-seq); higher = weaker binding; conditions: reference: library average
T1 sequence: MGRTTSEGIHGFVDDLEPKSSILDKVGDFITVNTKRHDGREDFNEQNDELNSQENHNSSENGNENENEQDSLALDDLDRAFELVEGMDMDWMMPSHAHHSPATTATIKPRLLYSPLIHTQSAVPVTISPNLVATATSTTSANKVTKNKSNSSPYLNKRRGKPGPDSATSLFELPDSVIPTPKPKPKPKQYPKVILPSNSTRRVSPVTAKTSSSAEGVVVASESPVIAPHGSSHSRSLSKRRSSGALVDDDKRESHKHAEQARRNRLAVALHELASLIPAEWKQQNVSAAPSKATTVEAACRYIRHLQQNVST

Row | Sequence | relative binding free energy [kcal/mol]
1 | CTGTGCACGTGATATG | -0.04
2 | TGCCGCACGTGTTGGT | 0
3 | AGTGACACGTGTTGAG | 0.01
4 | TGAAGCACGTGGGGTG | -0.2
5 | GCGGGCACGTGATGCG | -0.01
6 | TGGGCCACGTGTGTGC | -0.01
7 | GATGGCACGTGGGGTC | -0.12
8 | ATTTGCACGTGCTTGA | -0.18
9 | GCTCGCACGTGGGGTG | -0.25
10 | GATTTCACGTGGTCTT | 0.26
11 | TTTGCCACGTGCGGTA | -0.18
12 | TTGCTCACGTGGTGAG | 0.25
13 | AGGTGCACGTGGTTCT | -0.17
14 | TGTTACACGTGGTTAG | 0.03
15 | TGCTGCACGTGAGTGA | 0.05
16 | TCAGTCACGTGATGTG | 0.11
17 | TGGTGCACGTGATTTG | 0.01
18 | CAGATCACGTGGTGTG | 0.05
19 | GGTGGCACGTGTTTCT | 0.01
20 | TAGGTCACGTGTGACT | 0.21
21 | AATAACACGTGTTGTA | -0.04
22 | TGTCTCACGTGTGTTT | 0.14
23 | AGTTGCACGTGAACGT | 0.17

Row | Sequence | relative binding free energy [kcal/mol]
24 | TTTTTCACGTGAACGT | 0.44
25 | CCGGACACGTGGGGGC | -0.05
26 | GTGCTCACGTGGTAGA | 0.1
27 | TTTGACACGTGGTATC | 0.01
28 | TTCTGCACGTGTTGAA | 0.08
29 | GTGGTCACGTGTAATC | 0.24
30 | GATGGCACGTGATGTG | 0.09
31 | AGAGACACGTGAGTGT | 0.28
32 | AGCTGCACGTGTGATT | 0.1
33 | TTGATCACGTGGATGT | 0.18
34 | TTTAACACGTGCAGGT | 0.01
35 | GTTGGCACGTGTCGGT | 0.02
36 | CGTAGCACGTGGGTCT | -0.08
37 | TCAAGCACGTGAGTTT | 0.2
38 | GGATTCACGTGACTGG | 0.46
39 | GTTTGCACGTGCTGGT | 0.04
40 | AAGGGCACGTGGTGGC | -0.17
41 | GGTATCACGTGGTTCG | 0.18
42 | GGTCCCACGTGGAGGT | 0.03
43 | CGGGCCACGTGGTTGA | -0.2
44 | GGTATCACGTGACTTG | 0.31
45 | TCTTTCACGTGTATTG | 0.11
46 | TTTGTCACGTGCGTGG | -0.01

Row | Sequence | relative binding free energy [kcal/mol]
47 | CCGCGCACGTGGGGGT | -0.37
48 | GGTCACACGTGGATGG | 0.06
49 | ATATACACGTGTGATT | -0.04
50 | GATCACACGTGGGGCG | 0.13
51 | TGGTACACGTGCGTCA | -0.02
52 | AGTTTCACGTGTTAGG | 0.25
53 | GAAGGCACGTGGACAG | 0.02
54 | ATGGACACGTGTAGTA | 0
55 | GAGTGCACGTGCAGTT | 0.01
56 | TATGACACGTGTGTGT | -0.09
57 | AACTGCACGTGTTTTG | 0.08
58 | TCATTCACGTGTGGCG | 0.27
59 | TTCGTCACGTGAGAGT | 0.38
60 | AGGGTCACGTGTGATG | 0.13
61 | TTATTCACGTGGTCTC | 0.11
62 | TTGCGCACGTGGTTGC | -0.08
63 | ATTTACACGTGTTGTA | 0.16
64 | CGGCGCACGTGGGATG | -0.23
65 | GTGCACACGTGAGGTA | 0.13
66 | GGTGACACGTGCAGCG | 0.01
67 | TTTTTCACGTGCAGCG | 0.36
68 | CTTTGCACGTGTTGTT | -0.01
69 | AGTGACACGTGTGCGA | -0.11

Row | Sequence | relative binding free energy [kcal/mol]
70 | TTTTACACGTGGATTT | 0.12
71 | TCTTGCACGTGGCGGT | -0.18
72 | TTTGTCACGTGGGGCA | -0.14
73 | GTCTTCACGTGATTGG | 0.33
74 | GGTTGCACGTGGTGTC | 0.02
75 | GAGGTCACGTGCTTGG | 0.23
76 | GAATTCACGTGTAGTC | 0.5
77 | CTTTGCACGTGCAGTT | 0.02
78 | GCTAACACGTGGGGGT | -0.08
79 | CCTGTCACGTGATTGT | 0.23
80 | TATTGCACGTGGTTAG | -0.07
81 | TGTAACACGTGTGTTG | 0.04
82 | GAAATCACGTGTTTGT | 0.18
83 | TTCTTCACGTGGGATG | 0.2
84 | ATTTTCACGTGACTAT | 0.3
85 | CTCTGCACGTGTTGGG | -0.12
86 | GCGATCACGTGATGGT | 0.37
87 | TGTAACACGTGAGCAG | 0.23
88 | TCATTCACGTGAAGGG | 0.23
89 | CGTGCCACGTGAGGGA | 0.17
90 | CGAAGCACGTGGTATT | -0.11
91 | TTCGTCACGTGGGCGA | -0.02
92 | TCTAGCACGTGGTTTT | -0.07

Row | Sequence | relative binding free energy [kcal/mol]
93 | AGTAACACGTGCAGGG | 0.02
94 | TCAGGCACGTGTGGTG | -0.16
95 | TAGTTCACGTGGCCTG | 0.12
96 | GGGTTCACGTGCAAGT | 0.27
97 | TCGGTCACGTGAGGTT | 0.29
98 | GAGATCACGTGGCGGG | 0.15
99 | AAGATCACGTGGGGAT | 0.06
100 | ATTGACACGTGAATTT | 0.36
101 | GTAAACACGTGGTGGC | -0.06
102 | ACTTTCACGTGAATGG | 0.4
103 | TGGGCCACGTGGTGGG | -0.07
104 | TTGGGCACGTGGTGCA | -0.13
105 | TTTGTCACGTGGCGCT | -0.02
106 | ATCTACACGTGAGGTG | 0.27
107 | CTGTACACGTGCAGGT | 0.06
108 | TATATCACGTGTGGCG | 0.18
109 | ATTGGCACGTGCCGGT | -0.15
110 | CGTTGCACGTGGGGTG | -0.2
111 | TATAACACGTGAGTTT | 0.15
112 | AGTGTCACGTGTTTTT | 0.11
113 | TGGGGCACGTGGGGTG | -0.31
114 | ATTATCACGTGCGGTA | 0.24
115 | GGTGTCACGTGTGGCA | 0.18
